The list shows a part of the results. The list includes weakly bound sequences.
Target: T1, MBP-FoxP3dN (UniProt Q99JB6)
T1 sequence: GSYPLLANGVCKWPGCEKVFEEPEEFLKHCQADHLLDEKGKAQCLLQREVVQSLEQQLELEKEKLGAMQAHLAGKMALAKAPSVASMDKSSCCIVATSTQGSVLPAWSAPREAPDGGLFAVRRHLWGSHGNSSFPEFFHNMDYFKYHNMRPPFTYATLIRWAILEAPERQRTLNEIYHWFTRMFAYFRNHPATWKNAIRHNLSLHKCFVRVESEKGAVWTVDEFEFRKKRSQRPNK
Assay: PD-seq (MBP pull-down with sequencing)
Settings: 20 mM Tris-HCl pH 7.5, 100 mM NaCl, 1.5 mM MgCl2, 0.4 uM protein, 0.1 uM dsDNA library, 30 min, room temperature, amylose pull-down; high values mean tight binding; double strand, one strand shown

Sequence	binding signal (RPM ratio (pull-down/input))
GATGATTGTTCTCCCAGCTGATGAATTTACGGCGTCGAGTAAACAAATTTTCCTAATCTTTCTGTTCAAGCGCCATCTAC	0.604
GATGATTGTTCTCCCAGCTGATGAATTAGAGCTTTCGAGTAAACAAATTTTCCTAATCTTTCTGTTCAAGCGCCATCTAC	0.825
GATGATTGTTCTCCCAGCTGATGAATTCCTGCGTTCGAGTAAACAAATTTTCCTAATCTTTCTGTTCAAGCGCCATCTAC	1.27
GATGATTGTTCTCCCAGCTGATGAATTCACCAAATCGAGTAAACAAATTTTCCTAATCTTTCTGTTCAAGCGCCATCTAC	0.206
GATGATTGTTCTCCCAGCTGATGAATTGAAGTCTTCGAGTAAACAAATTTTCCTAATCTTTCTGTTCAAGCGCCATCTAC	0.312
GATGATTGTTCTCCCAGCTGATGAATTCGGGCGATCGAGTAAACAAATTTTCCTAATCTTTCTGTTCAAGCGCCATCTAC	0.447
GATGATTGTTCTCCCAGCTGATGAATTATACACGTCGAGTAAACAAATTTTCCTAATCTTTCTGTTCAAGCGCCATCTAC	0.65
GATGATTGTTCTCCCAGCTGATGAATTATGGCGTTCGAGTAAACAAATTTTCCTAATCTTTCTGTTCAAGCGCCATCTAC	1.69
GATGATTGTTCTCCCAGCTGATGAATTAGTGGGATCGAGTAAACAAATTTTCCTAATCTTTCTGTTCAAGCGCCATCTAC	0.568
GATGATTGTTCTCCCAGCTGATGAATTGCTTTGATCGAGTAAACAAATTTTCCTAATCTTTCTGTTCAAGCGCCATCTAC	0.833
GATGATTGTTCTCCCAGCTGATGAATTTTCGTTTTCGAGTAAACAAATTTTCCTAATCTTTCTGTTCAAGCGCCATCTAC	0.532
GATGATTGTTCTCCCAGCTGATGAATTAGGGCGTTCGAGTAAACAAATTTTCCTAATCTTTCTGTTCAAGCGCCATCTAC	1.09
GATGATTGTTCTCCCAGCTGATGAATTAGATACTTCGAGTAAACAAATTTTCCTAATCTTTCTGTTCAAGCGCCATCTAC	0.637
GATGATTGTTCTCCCAGCTGATGAATTATTGGCTTCGAGTAAACAAATTTTCCTAATCTTTCTGTTCAAGCGCCATCTAC	0.759
GATGATTGTTCTCCCAGCTGATGAATTTAGTGCCTCGAGTAAACAAATTTTCCTAATCTTTCTGTTCAAGCGCCATCTAC	1.57
GATGATTGTTCTCCCAGCTGATGAATTGCGTCCATCGAGTAAACAAATTTTCCTAATCTTTCTGTTCAAGCGCCATCTAC	1.16
GATGATTGTTCTCCCAGCTGATGAATTAGCGCAGTCGAGTAAACAAATTTTCCTAATCTTTCTGTTCAAGCGCCATCTAC	0.646
GATGATTGTTCTCCCAGCTGATGAATTCCGATGTTCGAGTAAACAAATTTTCCTAATCTTTCTGTTCAAGCGCCATCTAC	1.38
GATGATTGTTCTCCCAGCTGATGAATTCTTGGCGTCGAGTAAACAAATTTTCCTAATCTTTCTGTTCAAGCGCCATCTAC	0.369
GATGATTGTTCTCCCAGCTGATGAATTAGCATTATCGAGTAAACAAATTTTCCTAATCTTTCTGTTCAAGCGCCATCTAC	3.34
GATGATTGTTCTCCCAGCTGATGAATTCACGACGTCGAGTAAACAAATTTTCCTAATCTTTCTGTTCAAGCGCCATCTAC	0.314

Sequence	binding signal (RPM ratio (pull-down/input))
GATGATTGTTCTCCCAGCTGATGAATTTTCTTCTTCGAGTAAACAAATTTTCCTAATCTTTCTGTTCAAGCGCCATCTAC	0.263
GATGATTGTTCTCCCAGCTGATGAATTAGTAAGTTCGAGTAAACAAATTTTCCTAATCTTTCTGTTCAAGCGCCATCTAC	0.726
GATGATTGTTCTCCCAGCTGATGAATTGTTCGCATCGAGTAAACAAATTTTCCTAATCTTTCTGTTCAAGCGCCATCTAC	1.1
GATGATTGTTCTCCCAGCTGATGAATTAGCGTATTCGAGTAAACAAATTTTCCTAATCTTTCTGTTCAAGCGCCATCTAC	2.01
GATGATTGTTCTCCCAGCTGATGAATTGTGGCGGTCGAGTAAACAAATTTTCCTAATCTTTCTGTTCAAGCGCCATCTAC	1.47
GATGATTGTTCTCCCAGCTGATGAATTACCTAATTCGAGTAAACAAATTTTCCTAATCTTTCTGTTCAAGCGCCATCTAC	0.371
GATGATTGTTCTCCCAGCTGATGAATTACATCATTCGAGTAAACAAATTTTCCTAATCTTTCTGTTCAAGCGCCATCTAC	0.931
GATGATTGTTCTCCCAGCTGATGAATTAGACAGCTCGAGTAAACAAATTTTCCTAATCTTTCTGTTCAAGCGCCATCTAC	0.339
GATGATTGTTCTCCCAGCTGATGAATTCATGGCATCGAGTAAACAAATTTTCCTAATCTTTCTGTTCAAGCGCCATCTAC	0.852
GATGATTGTTCTCCCAGCTGATGAATTACCAGGATCGAGTAAACAAATTTTCCTAATCTTTCTGTTCAAGCGCCATCTAC	0.198
GATGATTGTTCTCCCAGCTGATGAATTGCTCTGCTCGAGTAAACAAATTTTCCTAATCTTTCTGTTCAAGCGCCATCTAC	0.464
GATGATTGTTCTCCCAGCTGATGAATTTGGGTTTTCGAGTAAACAAATTTTCCTAATCTTTCTGTTCAAGCGCCATCTAC	0.71
GATGATTGTTCTCCCAGCTGATGAATTGCAACCCTCGAGTAAACAAATTTTCCTAATCTTTCTGTTCAAGCGCCATCTAC	2.12
GATGATTGTTCTCCCAGCTGATGAATTCTCAATGTCGAGTAAACAAATTTTCCTAATCTTTCTGTTCAAGCGCCATCTAC	0.319
GATGATTGTTCTCCCAGCTGATGAATTACTAACGTCGAGTAAACAAATTTTCCTAATCTTTCTGTTCAAGCGCCATCTAC	0.49
GATGATTGTTCTCCCAGCTGATGAATTGCGAACCTCGAGTAAACAAATTTTCCTAATCTTTCTGTTCAAGCGCCATCTAC	0.619
GATGATTGTTCTCCCAGCTGATGAATTAAAGAGGTCGAGTAAACAAATTTTCCTAATCTTTCTGTTCAAGCGCCATCTAC	0.179
GATGATTGTTCTCCCAGCTGATGAATTGATGTATTCGAGTAAACAAATTTTCCTAATCTTTCTGTTCAAGCGCCATCTAC	2.27
GATGATTGTTCTCCCAGCTGATGAATTTGGAGTTTCGAGTAAACAAATTTTCCTAATCTTTCTGTTCAAGCGCCATCTAC	1.2
GATGATTGTTCTCCCAGCTGATGAATTTAATTACTCGAGTAAACAAATTTTCCTAATCTTTCTGTTCAAGCGCCATCTAC	4.86
GATGATTGTTCTCCCAGCTGATGAATTACAGCAGTCGAGTAAACAAATTTTCCTAATCTTTCTGTTCAAGCGCCATCTAC	0.516

Sequence	binding signal (RPM ratio (pull-down/input))
GATGATTGTTCTCCCAGCTGATGAATTAACCGCGTCGAGTAAACAAATTTTCCTAATCTTTCTGTTCAAGCGCCATCTAC	0.484
GATGATTGTTCTCCCAGCTGATGAATTTTGTCTGTCGAGTAAACAAATTTTCCTAATCTTTCTGTTCAAGCGCCATCTAC	1.87
GATGATTGTTCTCCCAGCTGATGAATTCCAAAAGTCGAGTAAACAAATTTTCCTAATCTTTCTGTTCAAGCGCCATCTAC	0.187
GATGATTGTTCTCCCAGCTGATGAATTGGACTGGTCGAGTAAACAAATTTTCCTAATCTTTCTGTTCAAGCGCCATCTAC	0.268
GATGATTGTTCTCCCAGCTGATGAATTCAGATTGTCGAGTAAACAAATTTTCCTAATCTTTCTGTTCAAGCGCCATCTAC	1.1
GATGATTGTTCTCCCAGCTGATGAATTGTAGTGCTCGAGTAAACAAATTTTCCTAATCTTTCTGTTCAAGCGCCATCTAC	1.25
GATGATTGTTCTCCCAGCTGATGAATTTGTTGTATCGAGTAAACAAATTTTCCTAATCTTTCTGTTCAAGCGCCATCTAC	7.55
GATGATTGTTCTCCCAGCTGATGAATTAATGCAGTCGAGTAAACAAATTTTCCTAATCTTTCTGTTCAAGCGCCATCTAC	1.77
GATGATTGTTCTCCCAGCTGATGAATTTTGACCCTCGAGTAAACAAATTTTCCTAATCTTTCTGTTCAAGCGCCATCTAC	0.5
GATGATTGTTCTCCCAGCTGATGAATTGCCTCTCTCGAGTAAACAAATTTTCCTAATCTTTCTGTTCAAGCGCCATCTAC	1.04
GATGATTGTTCTCCCAGCTGATGAATTGGCGTGTTCGAGTAAACAAATTTTCCTAATCTTTCTGTTCAAGCGCCATCTAC	1.25
GATGATTGTTCTCCCAGCTGATGAATTATTATGGTCGAGTAAACAAATTTTCCTAATCTTTCTGTTCAAGCGCCATCTAC	0.87
GATGATTGTTCTCCCAGCTGATGAATTGGACTACTCGAGTAAACAAATTTTCCTAATCTTTCTGTTCAAGCGCCATCTAC	0.339
GATGATTGTTCTCCCAGCTGATGAATTGTTTCTTTCGAGTAAACAAATTTTCCTAATCTTTCTGTTCAAGCGCCATCTAC	1.93
GATGATTGTTCTCCCAGCTGATGAATTCTGAATCTCGAGTAAACAAATTTTCCTAATCTTTCTGTTCAAGCGCCATCTAC	1.83
GATGATTGTTCTCCCAGCTGATGAATTTCGTTAGTCGAGTAAACAAATTTTCCTAATCTTTCTGTTCAAGCGCCATCTAC	1.43
GATGATTGTTCTCCCAGCTGATGAATTGCACGGGTCGAGTAAACAAATTTTCCTAATCTTTCTGTTCAAGCGCCATCTAC	0.514
GATGATTGTTCTCCCAGCTGATGAATTTAAGCGCTCGAGTAAACAAATTTTCCTAATCTTTCTGTTCAAGCGCCATCTAC	0.4
GATGATTGTTCTCCCAGCTGATGAATTGATCCGGTCGAGTAAACAAATTTTCCTAATCTTTCTGTTCAAGCGCCATCTAC	0.202
GATGATTGTTCTCCCAGCTGATGAATTTGCCGCTTCGAGTAAACAAATTTTCCTAATCTTTCTGTTCAAGCGCCATCTAC	0.877
GATGATTGTTCTCCCAGCTGATGAATTCCCCCCGTCGAGTAAACAAATTTTCCTAATCTTTCTGTTCAAGCGCCATCTAC	0.208
